In all, about 33,000 sequences were measured (“E-score (-0.5 to 0.5)”: median about -0.035, highest 2% from about 0.35 on). Some of the results follow.

The target of the experiment is T1, Pdr3 (UniProt P33200).
T1 sequence: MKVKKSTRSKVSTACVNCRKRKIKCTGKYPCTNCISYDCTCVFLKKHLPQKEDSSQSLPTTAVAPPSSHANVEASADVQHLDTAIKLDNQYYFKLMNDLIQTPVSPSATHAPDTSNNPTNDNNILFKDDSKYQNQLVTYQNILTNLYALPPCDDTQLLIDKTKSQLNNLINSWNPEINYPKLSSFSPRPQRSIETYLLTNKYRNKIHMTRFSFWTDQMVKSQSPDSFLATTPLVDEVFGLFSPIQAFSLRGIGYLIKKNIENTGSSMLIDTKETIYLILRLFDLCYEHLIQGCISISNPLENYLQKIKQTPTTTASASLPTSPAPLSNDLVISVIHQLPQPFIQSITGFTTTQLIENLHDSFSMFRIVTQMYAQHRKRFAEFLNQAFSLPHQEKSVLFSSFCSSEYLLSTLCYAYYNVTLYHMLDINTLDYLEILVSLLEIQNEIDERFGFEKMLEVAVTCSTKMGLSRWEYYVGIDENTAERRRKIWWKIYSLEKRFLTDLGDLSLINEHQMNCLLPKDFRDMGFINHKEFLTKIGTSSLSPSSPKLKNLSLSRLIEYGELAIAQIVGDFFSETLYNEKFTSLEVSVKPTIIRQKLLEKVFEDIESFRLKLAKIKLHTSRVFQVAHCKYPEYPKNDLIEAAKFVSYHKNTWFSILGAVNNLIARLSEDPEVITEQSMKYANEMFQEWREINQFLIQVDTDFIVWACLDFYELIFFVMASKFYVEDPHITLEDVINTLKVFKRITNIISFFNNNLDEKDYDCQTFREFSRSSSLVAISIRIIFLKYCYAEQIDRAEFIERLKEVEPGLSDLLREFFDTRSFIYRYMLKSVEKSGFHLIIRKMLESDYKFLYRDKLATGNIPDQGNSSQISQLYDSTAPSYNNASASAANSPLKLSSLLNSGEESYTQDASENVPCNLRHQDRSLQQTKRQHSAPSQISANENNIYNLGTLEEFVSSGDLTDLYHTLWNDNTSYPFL
Briefly: PBM E-score (8-mer binding enrichment) (E-score (-0.5 to 0.5)); higher = stronger / more preferred TF binding; most listed sequences are background and not binding sites. Conditions: protein concentration: 200 nM; construct: GST-full length. As for the experimental part:
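Universal 'all 10-mer' protein binding microarrays (Agilent AMADID 015681) probed with GST-tagged S. cerevisiae TFs (full-length or DBD) made by in vitro transcription/translation (PURExpress), about 100-200 nM. Bound TF was detected with fluorescent anti-GST. Each ungapped 8-mer (which stands for itself and its reverse complement) is scored by the PBM enrichment score (E-score), a modified Wilcoxon-Mann-Whitney statistic from -0.5 to +0.5, computed with the Universal PBM Analysis Suite. Scale: above 0.35 generally sequence-specific binding.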
On to AATACTTG, for which the “PBM E-score” value is -0.11. To ATAGATCG belongs 0.0236; to CACGCAGC, -0.0366.

AGTACGTC: the “PBM E-score” value stood at 0.0162. Regarding CAAGTTAG, the “PBM E-score” value was found to be 0.0297. To CTCTAAAA belongs -0.142; to AGGGTATC, -0.196.

For AACACGTC, the “PBM E-score” value is -0.151. For AACAACCT, the “PBM E-score” value was -0.137.

On to CCGCCACA, for which the “PBM E-score” value stood at 0.165. To CTTTTTCC belongs 0.206; to AGATATAT, 0.119; to CGCCAACC, 0.0221.

As to GGTAGAAA, the “PBM E-score” value is -0.125.

Take GCATCTCC: the “PBM E-score” value turned out to be 0.0623. With ACACTCTC, the “PBM E-score” value was determined as 0.0752. To AGCGAAAC belongs 0.151; to CTAACTAG, -0.00039; to GCGTCGAA, 0.114. Turning to CCTGCGAA, the “PBM E-score” value was -0.0887. Turning to CAGCAGAA, the “PBM E-score” value is -0.0552.

As for CCCATCCC, the “PBM E-score” value was determined as 0.133. In the case of AGAAGAAC, the “PBM E-score” value was -0.0559. To CGCATGAA belongs 0.0575; to AATGTATC, 0.0757; to CACACACA, -0.0991. To AGGCACAT belongs -0.0682; to CTACACGA, -0.0311. Next, AAACATCC: 0.166; ATGGCAAA: -0.123; AACATGAG: -0.137. As to ATGTACCC, the “PBM E-score” value is -0.158. As to ACAACCAG, the “PBM E-score” value was -0.0298.

For the sequence AATAGAGT, the “PBM E-score” value was -0.255.

On to CAAGTGAG, for which the “PBM E-score” value is -0.228. Turning to CAATGTAA, the “PBM E-score” value amounted to 0.0665. Consider TAAAACGA, for which the “PBM E-score” value is -0.17. For the sequence TCCCGTCA, the “PBM E-score” value worked out at 0.195.

As to CTCCACAG, the “PBM E-score” value was -0.262. To AATCGAGG belongs 0.104.

For AATGTCTG, the “PBM E-score” value is -0.0793. Turning to CGCGATGA, the “PBM E-score” value was found to be 0.152. Next, AAAACCGA: 0.112. To AGCAGGGA belongs -0.125; to ATTAATCA, 0.0039; to TCATGACA, 0.0587. Next, GAACGACC: -0.263; CCTGAAGA: -0.0192.

On to ACCTGCCA, for which the “PBM E-score” value is -0.131. To GGCTGCAA belongs 0.189; to ATCCCAGA, -0.204; to CCACAGAG, -0.124.

Take TCTATGAA: the “PBM E-score” value was -0.164. Consider CCAAAACA, for which the “PBM E-score” value is -0.224. On to ACATTCCA, for which the “PBM E-score” value is -0.0365.

On to TGCTTCAA, for which the “PBM E-score” value is -0.127. Next, AGGCCGCC: -0.00411. In the case of ACCGGCCA, the “PBM E-score” value turned out to be 0.096. Next, GAGATCCC: 0.181; AATGGATC: 0.0773; GAGATAAA: 0.122. Next, ACCTCAGA: -0.0977; AGGCAGTG: -0.092. Next, ACCTCTCG: -0.0741. Take ATGTAGCG: the “PBM E-score” value is -0.0209. To ATAGAGGA belongs -0.219. To CGCGAGAG belongs -0.0205. On to ACGGAAAA, for which the “PBM E-score” value turned out to be 0.403.

For AACCGGAC, the “PBM E-score” value amounted to 0.271. Next, ATGGTCAC: 0.0623.

Regarding TGTGGTAA, the “PBM E-score” value was -0.125. Next, AGTCACAT: -0.0705; CTCACAAC: 0.0403. Consider TAATCGGA, for which the “PBM E-score” value was 0.324. To ATCCTCGA belongs -0.00063. Turning to CGTTAAGA, the “PBM E-score” value was -0.136. Turning to CTCCGACA, the “PBM E-score” value came to 0.0789. To ACTCTTGG belongs -0.233; to CCCATCGG, 0.259. To AGGCTCTA belongs -0.198; to TCAAGAGA, -0.168.

As to ATCGCTCC, the “PBM E-score” value is -0.0532.

AGTCATCC: the “PBM E-score” value amounted to 0.00825. As for CATAAGGA, the “PBM E-score” value is -0.196. Next, GCGCGTAC: 0.0923; CAGCCCGG: 0.309.

The record behind these values is the supplement of paper PMC3334620.
